Measurements: the supplement of paper PMC3334620
Over roughly 33,000 sequences, “E-score (-0.5 to 0.5)” has its median near -0.017; the highest 2% begin near 0.3. The list shows a part of the results.

What follows are sequences tested against T1, Sut1 (UniProt P53032) (assay: PBM E-score (8-mer binding enrichment) (E-score (-0.5 to 0.5)); higher = stronger / more preferred TF binding; most listed sequences are background and not binding sites). Conditions: protein concentration: 200 nM; construct: GST-full length.
T1 sequence: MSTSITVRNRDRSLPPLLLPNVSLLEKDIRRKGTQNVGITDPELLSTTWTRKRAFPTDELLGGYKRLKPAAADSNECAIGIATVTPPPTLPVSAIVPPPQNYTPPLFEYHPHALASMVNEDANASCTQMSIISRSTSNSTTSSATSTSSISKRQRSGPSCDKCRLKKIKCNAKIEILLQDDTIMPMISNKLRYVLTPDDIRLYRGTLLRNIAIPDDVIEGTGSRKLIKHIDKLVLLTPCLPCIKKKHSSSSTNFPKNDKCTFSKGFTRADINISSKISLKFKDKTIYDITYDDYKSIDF
Summary of the method: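 Yeast transcription factors, full-length or as DNA-binding domains, were expressed with a GST tag using PURExpress in vitro transcription/translation. At about 100-200 nM they were applied to universal all-10-mer Agilent arrays, double-stranded by primer extension on fresh or once-stripped slides. Fluorescent anti-GST detected bound protein, and masliner normalised the scans. E-scores for ungapped eight-base words, pooled with reverse complements, came from the Universal PBM Analysis Suite.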

Row | Sequence | PBM E-score
1 | ACTCCAGT | -0.0384
2 | CTACTGTC | -0.187
3 | ACCAAACG | -0.189
4 | CGACTTAG | -0.108
5 | AACGGCGT | -0.0613
6 | AGTACGAG | 0.156
7 | GCTAACTA | 0.165
8 | AAGGCGTA | -0.0416
9 | CGGTTCGC | -0.0464
10 | CCAAATGG | -0.112
11 | GAGGATCA | -0.09
12 | CGAGCAGC | -0.0999
13 | TGCGGCCA | -0.115
14 | AATTTAGT | 0.268
15 | AGATGGAA | -0.125
16 | GTGGTTGA | 0.0583
17 | ACGTAGGG | -0.298
18 | GCTTCGAC | -0.218
19 | ATAGGCTG | -0.182
20 | ACTATGTC | 0.041
21 | AGCCTTGC | -0.254
22 | AGTCAGGG | -0.315
23 | CAAGTGGA | -0.0423
24 | CCTGAGGA | -0.154
25 | CGTACTAC | 0.0559

Row | Sequence | PBM E-score
26 | AATCTGGT | 0.047
27 | CACAACAA | 0.118
28 | AGCCGGAT | 0.125
29 | AAACTTTA | 0.219
30 | CGTAGAAA | 0.131
31 | GAAACTTA | 0.307
32 | CAGTCGCC | -0.063
33 | TGAACCCA | -0.00171
34 | AGATTCAT | 0.0265
35 | AGGAAGCA | 0.00387
36 | AGTTTTTA | 0.175
37 | AATAGGTG | -0.066
38 | ACCCCTAC | -0.29
39 | AAAAACAT | 0.101
40 | AGCCCTAT | -0.184
41 | CTTACACC | -0.0956
42 | CTTGGACA | -0.0984
43 | AAGTATTA | 0.0998
44 | GCTCAGCA | -0.124
45 | TAGTCCGA | 0.48
46 | GACCAAAC | -0.209
47 | ACACCCGC | -0.0186
48 | CCGCGAAC | 0.0271
49 | AACAGTTA | 0.132
50 | AGAGGAGC | -0.138

Row | Sequence | PBM E-score
51 | AATCCATG | 0.0261
52 | ACGCGCCG | -0.0981
53 | ATCGTCCG | 0.0218
54 | AAATTCAT | 0.184
55 | CACCCGTA | -0.0523
56 | ACTTCATG | -0.0674
57 | ACAGCCAC | 0.00395
58 | CACCCTGG | -0.306
59 | CCTCATGC | -0.138
60 | GAGGGAAA | -0.141
61 | GCTACGCC | -0.318
62 | CTCCCATA | -0.259
63 | ATCTCTTG | -0.16
64 | AGGGCACT | -0.264
65 | CCGTAACC | 0.0585
66 | ATTGCAGA | 0.062
67 | CCCAGACG | -0.292
68 | CCCCTTTA | -0.043
69 | CGGTCGTC | -0.0814
70 | ACCATGGT | -0.15
71 | ACTCTGAG | -0.216
72 | GAGAACCA | 0.0629
73 | CACGGGAA | -0.137
74 | ATACTCTC | 0.0507
75 | CCCCCACC | -0.31

Row | Sequence | PBM E-score
76 | ATACCCCC | -0.197
77 | CGGGAAAC | 0.0593
78 | CCTAGGTA | -0.0825
79 | AGGCTCAG | -0.161
80 | GGCGGAAA | 0.156
81 | TGAACGAA | -0.00471
82 | CAAGTGAA | 0.0241
83 | ATACACCC | 0.0511
84 | TAGAACGA | 0.0857
85 | ACTCCGCC | 0.438
86 | ACTCACCC | 0.108
87 | ACGACAGG | -0.0395
88 | AATATGTA | 0.193
89 | AGGTTCGC | -0.164
90 | TAATCGCA | -0.0128
91 | AGTCAGAG | 0.041
92 | AGCGTTGC | 0.106
93 | AAGAGAAG | -0.0209
94 | AGTGTTGC | 0.0842
95 | CAACGGCG | -0.0804
96 | CATCCCTC | 0.0831
97 | ATCATTGG | 0.00019
98 | GGAGTCCA | 0.217
99 | TAATTAAA | 0.235
100 | TAAATGCA | 0.162

Row | Sequence | PBM E-score
101 | AGGTTCCA | -0.075
102 | AGGCAGAT | -0.0134
103 | CCTCCAGA | -0.0481
104 | AATGCGGT | 0.0457
105 | CGGCAAAC | 0.178
106 | ACATCGCT | -0.128
107 | GGACTGTA | 0.0855
108 | ACTCGGGG | 0.0947
109 | ACGAAGTA | -0.073
110 | GCTCAGGA | -0.0744
111 | AAAGTGTT | 0.176
112 | GGACCACA | -0.0349
113 | CGTTTTAG | -0.0873
114 | GACTTCGA | 0.0715
115 | CAGCTTCG | -0.0303
116 | GCGAGTTA | 0.136
117 | GATTTAGA | 0.0771
118 | CGCAACCG | -0.034
119 | AGTCCGCC | 0.375
120 | CACGTACA | -0.176
121 | ATAGTAAG | 0.183
122 | AGCGAGGC | -0.185
123 | CGGGGTGA | 0.177
124 | AAGCGTAC | -0.177
125 | AATCTATA | 0.281

Row | Sequence | PBM E-score
126 | ATAGGATG | 0.0582
127 | CGTAAATC | 0.0899
128 | CATTGGAC | -0.0502
129 | AGCCTACG | -0.109
130 | ACTGTGCA | -0.104
131 | TGAGGCCA | -0.00211
132 | CCTTTTTA | 0.114
133 | CGAGGTTA | 0.0207
134 | GAGGGAGA | -0.268
135 | CGCCCTGC | -0.141
136 | AAAACCTC | 0.181
137 | CAGTGCTC | -0.022
138 | ATTAAGCA | 0.00396
139 | AAGCTTAC | 0.0195
140 | TCGGTGAA | 0.0263
141 | TAACATGA | 0.118
142 | GGAACACA | -0.0182
143 | ACCCCCGG | -0.0829
144 | AAGAGCGC | -0.0157
145 | CGTTAAAA | 0.152
146 | CGGGTAAG | -0.17
147 | ACTATCCC | -0.119
148 | GCCGTATA | 0.193
149 | CATGGAGC | -0.166
150 | GCACCTCC | -0.204

Row | Sequence | PBM E-score
151 | CTTGGAGC | -0.0411
152 | CACTGCCC | -0.193
153 | AGGCGGCG | -0.206
154 | CGGCCGTC | -0.138
155 | CATCCGAA | 0.151
156 | AAAGCGGA | 0.129
157 | TCACCAGA | -0.224
158 | GGGTAGCA | -0.206
159 | GGTCGTTA | -0.0964
160 | CCCCGCTA | -0.00288
161 | ATTGTCAC | 0.141
162 | GCCCAATA | -0.0138
163 | AGAGACCG | -0.171
164 | CCTAACCA | 0.0768
165 | AGCGACGA | -0.145
166 | TACCATAA | 0.0703
167 | GGGACGAC | 0.00063
168 | TACAATAA | 0.213
169 | ATGTTGCA | -0.0682
170 | AAAGGTCA | -0.135
171 | GTGCCACA | -0.28
172 | ATCTTACA | 0.12
